Values joined by “and” are separate entries in the source; they are usually repeats but may differ in a detail not shown here. Equal entries are not always repeated. Where two headings read alike, the source gives them in different places.
T1: human Ang-2 (human, UniProt O15123 19-496, limits assumed)
T1 construct: Sources differ by assay: R&D Systems 623-AN (mixture of 2 truncated versions) for initial screening; also called hAng-2; huAng-2
T1 sequence (looked up): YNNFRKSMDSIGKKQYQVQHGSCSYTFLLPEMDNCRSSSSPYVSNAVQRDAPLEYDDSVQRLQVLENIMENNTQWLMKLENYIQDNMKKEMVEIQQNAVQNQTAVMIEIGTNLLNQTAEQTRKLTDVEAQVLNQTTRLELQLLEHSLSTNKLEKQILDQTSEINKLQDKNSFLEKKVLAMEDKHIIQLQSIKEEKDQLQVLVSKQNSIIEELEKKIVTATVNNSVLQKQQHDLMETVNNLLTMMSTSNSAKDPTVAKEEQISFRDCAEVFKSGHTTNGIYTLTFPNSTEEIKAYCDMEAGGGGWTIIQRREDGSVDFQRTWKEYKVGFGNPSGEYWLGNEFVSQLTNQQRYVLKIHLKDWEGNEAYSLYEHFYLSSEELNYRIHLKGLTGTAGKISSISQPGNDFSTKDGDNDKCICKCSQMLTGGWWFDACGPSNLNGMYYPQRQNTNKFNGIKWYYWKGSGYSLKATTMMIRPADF

T2: murine Ang-2 (murine, UniProt O35608 19-496, limits assumed)
T2 construct: also called mAng-2; mouse Ang-2
T2 sequence (looked up): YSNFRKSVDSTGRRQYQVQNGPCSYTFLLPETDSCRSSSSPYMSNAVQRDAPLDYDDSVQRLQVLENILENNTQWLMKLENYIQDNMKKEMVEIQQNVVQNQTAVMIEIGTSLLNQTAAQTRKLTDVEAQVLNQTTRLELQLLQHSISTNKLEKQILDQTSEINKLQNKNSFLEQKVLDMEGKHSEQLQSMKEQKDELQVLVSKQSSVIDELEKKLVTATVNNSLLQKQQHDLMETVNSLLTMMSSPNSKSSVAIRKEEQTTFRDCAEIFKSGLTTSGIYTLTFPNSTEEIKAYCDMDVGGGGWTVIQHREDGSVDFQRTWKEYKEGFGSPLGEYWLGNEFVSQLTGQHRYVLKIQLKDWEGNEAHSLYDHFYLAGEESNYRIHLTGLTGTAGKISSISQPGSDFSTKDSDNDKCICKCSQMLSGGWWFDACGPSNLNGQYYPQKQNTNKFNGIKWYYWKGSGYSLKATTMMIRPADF

T3: rat Ang-2 (rat, UniProt O35462 19-496, limits assumed)
T3 construct: also called rAng-2
T3 sequence (looked up): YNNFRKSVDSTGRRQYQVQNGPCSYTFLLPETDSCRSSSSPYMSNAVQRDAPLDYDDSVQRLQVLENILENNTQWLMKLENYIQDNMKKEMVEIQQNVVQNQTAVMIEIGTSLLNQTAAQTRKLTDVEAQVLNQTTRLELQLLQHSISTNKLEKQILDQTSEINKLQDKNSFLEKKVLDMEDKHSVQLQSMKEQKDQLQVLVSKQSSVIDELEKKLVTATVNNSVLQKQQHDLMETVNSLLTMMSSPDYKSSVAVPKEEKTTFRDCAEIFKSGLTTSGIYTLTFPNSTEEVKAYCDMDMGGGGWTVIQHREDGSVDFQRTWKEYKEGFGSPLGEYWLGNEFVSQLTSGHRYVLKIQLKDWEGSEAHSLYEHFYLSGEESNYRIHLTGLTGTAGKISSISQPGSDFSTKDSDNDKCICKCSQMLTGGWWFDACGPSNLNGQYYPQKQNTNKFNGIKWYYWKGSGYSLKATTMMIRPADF

T4: cyno Ang-2 (cyno, UniProt A0A2K5VNX6 19-496)
T4 construct: also called cAng-2
T4 sequence: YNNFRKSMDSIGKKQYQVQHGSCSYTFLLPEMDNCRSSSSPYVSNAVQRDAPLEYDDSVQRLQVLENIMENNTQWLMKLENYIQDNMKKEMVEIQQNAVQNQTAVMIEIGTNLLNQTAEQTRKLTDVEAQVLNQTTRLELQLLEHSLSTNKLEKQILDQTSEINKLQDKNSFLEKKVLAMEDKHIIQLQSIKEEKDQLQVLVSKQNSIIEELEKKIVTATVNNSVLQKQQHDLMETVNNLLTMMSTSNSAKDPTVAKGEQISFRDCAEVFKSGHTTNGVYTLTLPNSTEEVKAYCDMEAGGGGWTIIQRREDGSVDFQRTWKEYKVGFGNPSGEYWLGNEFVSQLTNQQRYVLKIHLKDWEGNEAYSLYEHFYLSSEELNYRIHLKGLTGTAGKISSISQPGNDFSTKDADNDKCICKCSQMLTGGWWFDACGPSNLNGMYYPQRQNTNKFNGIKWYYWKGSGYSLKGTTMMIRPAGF

T5: human Ang-1 (human, UniProt Q15389 16-498, limits assumed)
T5 construct: also called hAng-1
T5 sequence (looked up): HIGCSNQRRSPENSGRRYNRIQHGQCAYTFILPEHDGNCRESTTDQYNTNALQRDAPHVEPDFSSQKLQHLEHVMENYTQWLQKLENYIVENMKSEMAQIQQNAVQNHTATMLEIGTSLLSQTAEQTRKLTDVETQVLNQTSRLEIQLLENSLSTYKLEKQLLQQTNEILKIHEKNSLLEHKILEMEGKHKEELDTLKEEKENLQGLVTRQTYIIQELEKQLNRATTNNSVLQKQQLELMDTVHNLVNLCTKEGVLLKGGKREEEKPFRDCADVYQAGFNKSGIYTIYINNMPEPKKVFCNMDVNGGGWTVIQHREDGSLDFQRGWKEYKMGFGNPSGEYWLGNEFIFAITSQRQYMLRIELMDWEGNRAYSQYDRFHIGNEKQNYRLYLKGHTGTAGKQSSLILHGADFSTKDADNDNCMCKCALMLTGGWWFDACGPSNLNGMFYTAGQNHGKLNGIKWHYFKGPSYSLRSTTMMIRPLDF


Key:
human Ang-2 [1] = molecular target: T1, human Ang-2; experiment: neutralization ELISA vs Tie-2-Fc
Experimental: (§1) Microtiter plates to which human Ang-2 polypeptide was bound were prepared as described for the Affinity ELISA. […] Next, about 100 microliters per well of goat anti-mouse-IgG-HRP (Pierce Chemical CO., catalog #31432) was added at a dilution of 1:10,000 in PBS containing about 1 percent BSA. Plates were incubated at room temperature for about 1 hour, after which they were washed five times with PBS containing about 0.1 percent Tween-20. About 100 microliters per well of TMB substrate (described above) was then added and color was allowed to develop. Absorbance was then read in a spectrophotomer at 370 nm.

murine Ang-2 [2] = molecular target: T2, murine Ang-2; experiment: neutralization ELISA vs Tie-2-Fc
Experimental: as §1

human Ang-2 [3] = molecular target: T1, human Ang-2; experiment: BIAcore, peptibody captured on Protein G
murine Ang-2 [4] = molecular target: T2, murine Ang-2; experiment: BIAcore, peptibody captured on Protein G
human Ang-2 [5] = molecular target: T1, human Ang-2; experiment: neutralization ELISA vs Tie-2-Fc; remark: listed apart in the source
human Ang-2 [6] = molecular target: T1, human Ang-2; experiment: neutralization ELISA vs Tie-2-Fc; remark: listed apart in the source
Experimental: (§2) Plates were incubated at room temperature for about 1 hour, after which they were washed five times with PBS containing about 0.1 percent Tween-20. […] Absorbance was then read in a spectrophotomer at 370 nm.

murine Ang-2 [7] = molecular target: T2, murine Ang-2; experiment: neutralization ELISA vs Tie-2-Fc; remark: listed apart in the source
Experimental: as §2

rat Ang-2 = molecular target: T3, rat Ang-2; experiment: neutralization ELISA vs Tie-2-Fc
Experimental: as §2

cyno Ang-2 = molecular target: T4, cyno Ang-2; experiment: neutralization ELISA vs Tie-2-Fc
Experimental: as §2

human Ang-2 [8] = molecular target: T1, human Ang-2; experiment: BIAcore, peptibody captured on Protein G; remark: listed apart in the source
human Ang-1 = molecular target: T5, human Ang-1; experiment: neutralization ELISA vs Tie-2-Fc
Experimental: as §2

IC50 (human Ang-2 [1]) | IC50 (murine Ang-2 [2]) | IC50 (human Ang-2 [5]) [nM] | IC50 (human Ang-2 [6]) [nM] | IC50 (murine Ang-2 [7]) [nM] | IC50 (rat Ang-2) [nM] | Kd (human Ang-2 [8]) [nM] | koff (human Ang-2 [8]) [s⁻¹] | kon (human Ang-2 [8]) [M⁻¹ s⁻¹] | Binder | other results
0.65 nM and 0.9 nM | 0.8 nM and 1 nM | – | – | – | – | – | – | – | 2xL1 (C) (Fc fusion, one of the rows may be 2xL1 (N)) [human IgG1 Fc not written out]GGGGGAQKFNPLDELEETLYEQFTFQQGGGGGGGGKFNPLDELEETLYEQFTFQQLE | –
0.05 nM | 0.04 nM | – | – | – | – | – | – | – | Con4-L1 (C) (Fc fusion) [human IgG1 Fc not written out]GGGGGAQGSGSATGGSGSTASSGSGSATHKFNPLDELEETLYEQFTFQQGGGGGQEECEWDPWTCEHMLE | –
– | – | 0.17 | 0.179 | 0.249 | 0.204 | 0.24 | 0.00014 | 560000 | L1-21 (N) (Fc fusion) MGAQHTFQPLDELEETLYYQWLYDQLLEGGGGG[human IgG1 Fc not written out] | IC50 (cyno Ang-2): 0.608 nM
– | – | 0.09 | 0.08 | 0.16 | 0.22 | 0.21 | 5.9e-05 | 290000 | Con4-44 (C) (Fc fusion) [human IgG1 Fc not written out]GGGGGAQPIRQEECDWDPWTCEHMWEVLE | IC50 (human Ang-1): 43 nM
21 nM | 7.7 nM | – | – | – | – | – | – | – | TN-12-9 (N) (Fc fusion) MGAQFDYCEGVEDPFTFGCDNHLEGGGGG[human IgG1 Fc not written out] | Kd (human Ang-2 [3]): 8.2 nM; koff (human Ang-2 [3]): 0.001 s⁻¹; kon (human Ang-2 [3]): 120000 M⁻¹ s⁻¹; Kd (murine Ang-2 [4]): 0.32 nM; koff (murine Ang-2 [4]): 0.00023 s⁻¹; kon (murine Ang-2 [4]): 720000 M⁻¹ s⁻¹
– | – | 0.1 | 0.2 | 0.27 | 0.35 | – | – | – | Con4-40 (C) (Fc fusion) [human IgG1 Fc not written out]GGGGGAQTNIQEECEWDPWTCDHMPGKLE | –

More lines, now with the values behind:

Binder | IC50 (human Ang-2 [1]) | IC50 (murine Ang-2 [2]) | IC50 (human Ang-2 [5]) [nM] | IC50 (human Ang-2 [6]) [nM] | IC50 (murine Ang-2 [7]) [nM] | IC50 (rat Ang-2) [nM] | Kd (human Ang-2 [8]) [nM] | koff (human Ang-2 [8]) [s⁻¹] | kon (human Ang-2 [8]) [M⁻¹ s⁻¹] | other results
L1 (N) (Fc fusion, also called Pb L1 (N)) MGAQKFNPLDELEETLYEQFTFQQLEGGGGG[human IgG1 Fc not written out] | 6 nM | 11 nM | – | – | – | – | – | – | – | Kd (human Ang-2 [3]): 3.1 nM; koff (human Ang-2 [3]): 0.00091 s⁻¹; kon (human Ang-2 [3]): 290000 M⁻¹ s⁻¹; Kd (murine Ang-2 [4]): 0.42 nM; koff (murine Ang-2 [4]): 0.00023 s⁻¹; kon (murine Ang-2 [4]): 560000 M⁻¹ s⁻¹
L1-7 (N) (Fc fusion) MGAQTNFMPMDDLEQRLYEQFILQQGLEGGGGG[human IgG1 Fc not written out] | – | – | 0.03 | 0.046 | 0.063 | 0.035 | 0.24 | 8.7e-05 | 370000 | IC50 (cyno Ang-2): 0.108 nM
L1-10 (N) (Fc fusion) MGAQQKFQPLDELEQTLYEQFMLQQALEGGGGG[human IgG1 Fc not written out] | – | – | 0.05 | 0.06 | 0.06 | 0.06 | 0.77 | 0.00011 | 150000 | –
L1 (C) (Fc fusion) [human IgG1 Fc not written out]GGGGGAQKFNPLDELEETLYEQFTFQQLE | 65 nM | 37 nM | – | – | – | – | – | – | – | –

Reference: US20090054323A1 (published 2009)
